Out of some 48,000 compounds screened, about 550 (1.1%) were called active. About 4% were inconclusive and are not listed. Cut-off read from the data, not from the text of the source: active = potency below about 15 µM; inconclusive = mostly about 16 µM to 33 µM; inactive = weaker than that. Some of the results follow.
These molecules were tested against Lysosomal acid glucosylceramidase (Homo sapiens) (UniProt P04062) (assay: Glucocerebrosidase). Settings: purified enzyme, resorufin glucoside fluorescence (screen aimed at inhibitors), 20 min; series mostly up to 77 µM.
Procedure, shortened: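 Compounds titrated against 0.2 nM normal enzyme, 30 uM resorufin beta-D-glucopyranoside substrate, citrate/phosphate buffer with taurocholate and tween-20, pH 5.9. Reaction ran 20 min at room temperature; fluorescence (Ex 548/Em 600) gave AC50.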
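Note: the screen sought inhibitors.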
Potency is the fitted concentration of half-maximal effect.

Chain of UniProt P04062 (P04062 whole entry, looked up): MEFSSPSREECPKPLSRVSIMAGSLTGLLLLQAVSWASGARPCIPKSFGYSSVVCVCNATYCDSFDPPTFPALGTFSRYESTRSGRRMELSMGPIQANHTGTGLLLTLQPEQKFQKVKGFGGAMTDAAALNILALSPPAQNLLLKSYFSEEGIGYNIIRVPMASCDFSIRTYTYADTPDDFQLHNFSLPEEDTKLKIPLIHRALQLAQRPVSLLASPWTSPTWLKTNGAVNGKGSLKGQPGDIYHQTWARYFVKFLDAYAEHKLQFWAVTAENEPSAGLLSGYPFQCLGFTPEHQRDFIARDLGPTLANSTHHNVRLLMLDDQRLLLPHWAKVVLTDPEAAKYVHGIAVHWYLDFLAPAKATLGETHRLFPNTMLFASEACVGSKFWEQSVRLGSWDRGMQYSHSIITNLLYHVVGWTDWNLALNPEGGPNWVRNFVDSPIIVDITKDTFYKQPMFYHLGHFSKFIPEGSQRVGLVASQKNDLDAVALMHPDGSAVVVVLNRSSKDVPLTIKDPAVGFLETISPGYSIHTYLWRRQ

Potency, inactive:
Cc1ccc(C)c(N2CCN(C(=O)CCCCn3c(=O)[nH]c4ccccc4c3=O)CC2)c1
c1ccc(-n2nnc3c(N4CCOCC4)ncnc32)cc1 > 76.9 µM
c1ccc(CSc2nncn2-c2ccccn2)cc1 > 76.9 µM
COCCn1c(C)cc(C(=O)CN2C(=O)NC3(CCCCCCC3)C2=O)c1C > 76.9 µM
CC1(C)NC(=O)N(CC(O)CN2C(=O)CCC2=O)C1=O (stereo unspecified) > 76.9 µM
CCn1c(CNC(=O)c2ccc(OC)c(OC)c2)nnc1SCC(=O)c1ccc(OC)cc1 > 76.9 µM
Cc1ccccc1Cn1nc(C)c(NC(=O)c2noc3c2CCCC3)c1C > 76.9 µM
CC1(c2ccc3noc(-c4ccccc4)c3c2)OCCO1 > 76.9 µM
Cc1nnc(SCC(=O)Nc2ccc3c(c2)OCCO3)n1CC1CCCO1 (stereo unspecified) > 76.9 µM
CC1CN(c2ncnc3c2oc2ccccc23)CC(C)O1 (stereo unspecified) > 76.9 µM
O=C(O)c1oc2ccccc2c1CSc1ccccn1 > 76.9 µM
CC(C)(C)c1cc(C(=O)O)nn1-c1ccccc1 > 76.9 µM
CN1C(=O)c2oc3ccccc3c(=O)c2C1c1ccccn1 (stereo unspecified) > 76.9 µM
COC(=O)c1cccc(NC(=O)c2cccc(OC)c2)c1 > 76.9 µM
CCOC(=O)C(C)Sc1nnc2n1C(C)(C)Cc1ccccc1-2 (stereo unspecified) > 76.9 µM
Cc1cccc(CCN(Cc2cc3cccc(C)c3[nH]c2=O)C(=O)N2CCOCC2)c1 > 76.9 µM
CCOC(=O)c1cc2sccc2n1CC(=O)Nc1ccc(OC)c(OC)c1 > 76.9 µM
O=C(CSc1nnc(-c2cccs2)o1)N1CCOCC1 > 76.9 µM
COc1cc(C(=O)Nc2cc(C)ccn2)cc(OC)c1OC > 76.9 µM
C=CCn1c(SCc2ccc(C#N)cc2)nnc1-c1cccc(Cl)c1 > 76.9 µM
Cc1ccc2c(c1C)NC(C)CC2C (stereo unspecified) > 76.9 µM
COc1ccc(CCN2C(=O)C3C4C=CC(C4)C3C2=O)cc1OC (stereo unspecified) > 76.9 µM
O=C(CN1C(=O)C2C3C=CC(C3)C2C1=O)NCc1ccc2c(c1)OCO2 (stereo unspecified) > 76.9 µM
Cc1onc(-c2c(F)cccc2Cl)c1C(=O)NCCc1ccc(S(N)(=O)=O)cc1 > 76.9 µM
COc1ccccc1C(=O)Nc1nnn(C)n1 > 76.9 µM
COC(=O)C1C(=O)c2c(n[nH]c2C)CC1(C)C (stereo unspecified) > 76.9 µM

Source: PubChem BioAssay AID360 (National Center for Advancing Translational Sciences (NCATS), 2006)
